Assay results from PMC10076392, “Structure of the heterotrimeric membrane protein complex FtsB-FtsL-FtsQ of the bacterial divisome” (Nature Communications, 2023).

T1: FtsB-FtsL heterodimer (E. coli strain K12, UniProt P0A6S5 1-103; P0AEN4 1-121, S3N | R4K | V5L)
T1 construct: FtsB, E. coli strain K12, full length; FtsL, E. coli strain K12, full length, with S3N, R4K, V5L; also called FtsBL; source: E. coli C43, co-expressed with FtsQ from pRSF-FtsBLQ; solubilised membranes, Ni-NTA, Superdex-200; not shown: His6 (that it sits on FtsB is inferred from the cloning order in pRSFDuet-1), N-terminal, kept
T1 sequence (looked up) 1: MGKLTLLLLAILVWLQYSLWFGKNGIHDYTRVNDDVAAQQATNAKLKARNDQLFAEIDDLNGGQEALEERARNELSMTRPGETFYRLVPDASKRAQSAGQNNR
T1 sequence (looked up) 2: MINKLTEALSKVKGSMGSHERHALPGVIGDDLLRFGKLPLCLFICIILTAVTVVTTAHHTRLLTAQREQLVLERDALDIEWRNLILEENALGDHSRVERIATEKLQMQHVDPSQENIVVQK

B1: FtsBLQ^T37W mutant complex (complex)
chain 1: T1 sequence (looked up) 1
chain 2: T1 sequence (looked up) 2
chain 3: [about 300 residues with changes omitted]
notes: FtsB, E. coli strain K12, full length; FtsL, E. coli strain K12, full length, with S3N, R4K, V5L; FtsQ, E. coli strain K12, full length; source: E. coli C43, co-expressed, purified (Ni-NTA, Superdex-200) in Cymal-5; copies: + +
B2: FtsQ^Y248W (natural protein)
chain: not shown
notes: FtsQ, E. coli strain K12, full length; source: E. coli C43, co-expressed with FtsB and FtsL; solubilised membranes, Ni-NTA

Key:
[1] = target: the molecule itself; assay: native gel or EMSA; purified complex in 200 mM NaCl, 20 mM HEPES pH8.0, 0.2% Cymal-5; NativePAGE 4-16% Bis-Tris with G-250, 150 V, 120 min, on ice
FtsB-FtsL heterodimer = target: T1, FtsB-FtsL heterodimer; assay: co-purification (Ni-NTA, SDS-PAGE); FtsB, FtsL and FtsQ co-expressed in E. coli C43; membranes solubilised in detergent; Ni-NTA by the His-tag; ratio of FtsQ over FtsBL from SDS-PAGE band intensities, wild type defined as 100%, three biological replicates; conditions: partners not purified

| Binder | binding result [1] | loss of FtsQ association (ratio of FtsQ over FtsBL, wild type = 100%) (FtsB-FtsL heterodimer) |
| --- | --- | --- |
| B1 | binds | – |
| B2 | – | 79% |
